From article PMC4336329 (PLoS ONE, 2015)
In all, about 310,000 compounds went through this assay and about 2,200 (0.71%) showed an effect of 50% or more. The effect is printed as a negative number. This is one part of the list.

Each compound was assayed against human ether-à-go-go-related gene (hERG) potassium channel (human, UniProt Q12809) (assay: primary screen, population patch clamp on CHO cells stably expressing hERG).
Sequence of human ether-à-go-go-related gene (hERG) potassium channel (Q12809 whole entry, looked up): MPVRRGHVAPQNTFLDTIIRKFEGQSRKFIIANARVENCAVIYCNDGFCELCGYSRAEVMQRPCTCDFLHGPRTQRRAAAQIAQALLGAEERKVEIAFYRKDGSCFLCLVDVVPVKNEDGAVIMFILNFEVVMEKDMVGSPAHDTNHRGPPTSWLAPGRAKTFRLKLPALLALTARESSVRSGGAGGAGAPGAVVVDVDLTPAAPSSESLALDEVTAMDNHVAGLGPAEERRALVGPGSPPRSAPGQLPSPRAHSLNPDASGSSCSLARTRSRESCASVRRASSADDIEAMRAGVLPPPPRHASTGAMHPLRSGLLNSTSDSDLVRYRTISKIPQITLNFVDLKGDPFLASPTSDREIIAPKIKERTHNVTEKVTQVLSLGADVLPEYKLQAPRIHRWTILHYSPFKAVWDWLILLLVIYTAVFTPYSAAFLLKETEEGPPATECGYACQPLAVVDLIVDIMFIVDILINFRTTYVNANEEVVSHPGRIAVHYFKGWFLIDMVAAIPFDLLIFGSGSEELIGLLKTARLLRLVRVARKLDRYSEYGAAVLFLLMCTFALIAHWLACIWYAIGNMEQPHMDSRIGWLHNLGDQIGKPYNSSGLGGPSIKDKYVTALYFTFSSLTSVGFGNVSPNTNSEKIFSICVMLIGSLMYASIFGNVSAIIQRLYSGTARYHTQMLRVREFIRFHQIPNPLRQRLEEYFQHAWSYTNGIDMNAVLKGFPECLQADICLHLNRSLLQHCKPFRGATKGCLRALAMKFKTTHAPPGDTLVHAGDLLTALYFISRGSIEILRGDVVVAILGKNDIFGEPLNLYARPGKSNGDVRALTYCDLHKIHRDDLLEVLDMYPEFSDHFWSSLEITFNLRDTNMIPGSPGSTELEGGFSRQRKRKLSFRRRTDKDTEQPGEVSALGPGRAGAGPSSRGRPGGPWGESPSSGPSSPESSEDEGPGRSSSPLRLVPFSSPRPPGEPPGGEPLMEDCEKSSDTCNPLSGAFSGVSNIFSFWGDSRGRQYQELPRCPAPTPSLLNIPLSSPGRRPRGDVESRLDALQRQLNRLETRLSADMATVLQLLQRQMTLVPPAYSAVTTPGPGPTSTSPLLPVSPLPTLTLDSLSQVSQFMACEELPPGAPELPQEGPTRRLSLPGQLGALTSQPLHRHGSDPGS

Point of comparison: CCOc1ccc2nc(N/C(N)=N/S(C)(=O)=O)nc(C)c2c1, “hERG current change (%, negative = inhibition) at 1uM” value 6.17%. Against it:
- CC(=O)[C@@H]1[C@@H]2C(=O)N(c3ccc(F)c(Cl)c3)C(=O)[C@@H]2C2c3ccccc3C=CN21 (stereo partly drawn) — higher, 14.6%
- OCCN1CN=C(Nc2nc3ccccc3o2)NC1 — lower, 5.57%
- CC(C)c1cc[n+](-c2nc([O-])sc2C=O)cc1 — lower, 3.33%
- COc1ccc(N2CCN(CC(O)COc3ccc(C)cc3C)CC2)cc1.Cl (stereo not drawn) — lower, -54.6%
- CCC(=O)Nc1nn(C)c2nc3c(C)cccc3cc12 — lower, -0.111%
- CCC(Oc1ccccc1)C(=O)OCC(=O)N(CC)c1c(N)n(Cc2ccccc2)c(=O)[nH]c1=O (stereo not drawn) — higher, 16.1%
- NS(=O)(=O)c1ccc(CNC(=O)Cc2cccs2)cc1 — higher, 20.6%
- CCOc1ccccc1OCCCC(=O)Nc1cccc(-n2cnnn2)c1C — higher, 7.99%
- COc1cc(CNc2ccc(O)cc2)cc(Br)c1OCc1ccccc1 — higher, 20.4%
- CC(=O)c1ccc(S(=O)(=O)Oc2ccc(-c3ccc(C(=O)O)cc3)cc2)cc1 — higher, 15.2%
- CCCCN(CCCC)Cc1ccc(C(=O)NNC(=O)Nc2ccccc2)o1 — higher, 9.26%
- O=C(COC(=O)/C=C/c1ccccc1)NCc1ccccc1Cl — higher, 19.3%
- C=CCNc1nc(Nc2ccc(OC)cc2)nc(OCC)n1 — higher, 10.2%
- CCOC(=O)c1c(C)n(C)c2ccc(OCC(N)=O)cc12 — higher, 12.9%
- NNc1nc(-c2ccccc2)c2cc(Cl)ccc2n1 — lower, 5.88%
- COc1ccc2oc(C(=O)OCC(=O)NC(=O)NC(C)C)c(C)c2c1 — higher, 15.6%
- CCC(=O)Oc1ccc(C(=O)Nc2cccc(NC(=O)c3ccco3)c2)cc1 — lower, 5.01%
- COc1ccc(Cl)cc1Nc1ncnc2sc(C)c(S(=O)(=O)N3CCC(C)CC3)c12 — lower, 5.4%
- Cc1ccc(N2CCN(C(=O)c3ccccc3NC(=O)C3CCCCC3C(=O)O)CC2)cc1 (stereo not drawn) — lower, 1.54%
- Cn1c(NC(=O)c2cc(-c3ccc4c(c3)OCO4)nc3ccccc23)cc(=O)n(C)c1=O — lower, 2.87%
- O=C(CN1CCC(NC(=O)C2CC2)CC1)Nc1ccccc1[N+](=O)[O-] — higher, 14.5%
- COc1ccc(C(CCN2CCCCC2)c2c(OC)cc(OC)c3c(-c4ccccc4)cc(=O)oc23)cc1 (stereo not drawn) — lower, -4.48%
- CC(=O)COC(=O)c1cccc(N2C(=O)C3C4C=CC(C4)C3C2=O)c1 (stereo not drawn) — lower, 2.21%
- Cc1nc(-c2ccccc2)nc2[nH]c(=O)n(-c3ccccc3)c(=O)c12 — higher, 13.7%
- O=C(Oc1ccc(-c2cn3c(n2)SCC3)cc1)c1ccccc1 — lower, -1.03%
- Cc1ccc(N2C(=O)CC(n3nc(C)cc3C)C2=O)cc1 (stereo not drawn) — lower, -11.4%
- COc1cc(-n2c(C)nc3cc(C(=O)NCC4CCCO4)ccc32)cc(OC)c1OC (stereo not drawn) — lower, 1.53%
- Cn1c(=O)n(C)c2cc(NC(=O)COc3ccc(Cl)cc3)ccc21 — lower, -22.1%
- CCOc1ccc(C2C(C#N)=C(N)Oc3cc(C)oc(=O)c32)cc1 (stereo not drawn) — higher, 14.5%
- O=C(NNC1=NCCC1)C1CC1 — higher, 12.6%
- COc1ccc(Cl)cc1NC(=S)NCc1cccnc1 — higher, 7.74%
- CC12CCC(C(=O)O)(c3nc(C#N)c(C#N)nc31)C2(C)C (stereo not drawn) — higher, 14%
- COc1ccc(-c2cn(Cc3ccc([N+](=O)[O-])cc3)nn2)cc1 — higher, 6.38%
- CCCCOc1ccc(OCCCC)c2c1NC1(N2)C(=O)N(C(C)=O)c2ccccc21 — higher, 12%
- O=C(CC(C(=O)N1CCc2ccccc21)n1ccnc1)NCc1cccnc1 (stereo not drawn) — lower, 2.65%
- Cc1ccc2oc(=O)c(/C=C(\O)c3sc(C)nc3C)nc2c1 — lower, 3.15%
- CCN(C(=O)CSc1nnc(-c2cccs2)n1CC)C1CCS(=O)(=O)C1 (stereo not drawn) — higher, 10.7%
- CCC(=O)c1ccc(OCC(=O)NCCC2=CCCCC2)c(OC)c1 — lower, 2.5%
- COc1cc(NS(=O)(=O)c2cc(C(=O)N3CCN(C(C)=O)CC3)ccc2OC)cc(OC)c1 — lower, 4.27%
- CCCCNC(=O)CNC(=O)c1nn(-c2ccc(OC)cc2OC)c(=O)c2ccccc12 — higher, 12.2%
- c1ccc2c(c1)CC(CN1CCNCC1)O2 (stereo not drawn) — lower, -14.3%
- COc1ccccc1-c1cc(C(F)(F)F)nc(S(=O)(=O)CCCC(=O)Nc2cc(C)on2)n1 — lower, -6.01%
- N#Cc1ccccc1 — higher, 13.4%
- Cc1nc2ccccc2nc1OCC(=O)Nc1cc(C(F)(F)F)ccc1N1CCOCC1 — higher, 8.36%
- COc1cc(C2/C(=C(\O)c3ccc4c(c3)CC(C)O4)C(=O)C(=O)N2Cc2ccco2)ccc1O (stereo not drawn) — lower, 1.35%
- COc1ccc(N(C)C(=S)Nc2ccc3nc(C)c(C)nc3c2)cc1 — higher, 16.1%
- NC(=O)NC(CCC(=O)O)C(=O)O (stereo not drawn) — lower, 1.34%
- CCc1nc2ccccc2c(C(=O)OC2CCOC2=O)c1C (stereo not drawn) — higher, 13.2%
- COc1ccccc1N1CCN(C(=O)CN(CCc2ccccc2)S(C)(=O)=O)CC1 — lower, 5.29%
- CC(=O)OCCOc1nc(NC(C)C)nc(NC(C)C)n1 — higher, 9.65%
- COc1ccc(N(CC(=O)NCc2ccco2)S(C)(=O)=O)cc1Cl — lower, 2.15%
- COc1ccc(N2CCN(C(CNC(=O)c3ccc4c(c3)OCO4)c3cccnc3)CC2)cc1 (stereo not drawn) — higher, 10.3%
- CC1CCN(c2oc(-c3ccc(F)cc3)nc2C#N)CC1 — higher, 12.5%
- CCOC(=O)Nc1ccc(Oc2ccccc2)cc1 — lower, -2.01%
- O=C(CS(=O)(=O)Cc1ccccc1)N1CCc2ccccc21 — lower, -7.59%
- C[C@H]([C@@H](N)C(=O)N[C@@H](C(=O)O)[C@@H]1O[C@H](n2ccc(=O)[nH]c2=O)[C@@H](O)[C@H]1O)[C@@H](O)c1ccc(O)cn1 — higher, 8.26%
